Data published in PubChem BioAssay (NCI).
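Interpolation was linear, between the two tested concentrations surrounding the appropriate level; five concentrations were tested over 48 hours in 96-well plates. Abbreviation: GI50, concentration required for 50% inhibition of growth. TGI: concentration producing complete growth inhibition.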

System: NCI-H322M lung
Experiment: NCI tumour cell line growth inhibition, 48 h

CCOc1ccccc1NC(=O)CC1SC(=Nc2ccc([N+](=O)[O-])cc2)NC1=O (configuration not stated)
TGI: 84.3 µM

Cc1ccc(/C=C2/SC(Nc3nc(-c4csc(NC5=NC(=O)/C(=C\c6ccc(C)cc6)S5)n4)cs3)=NC2=O)cc1
GI50: 8.94 µM
TGI: 32.3 µM

O=C(Nc1cc(Cl)cc(Cl)c1)c1ccc(NC2=C(Cl)C(=O)N(Cc3ccc(Cl)cc3Cl)C2=O)cc1
GI50: 5.54 µM
TGI: 28 µM

c1ccc(N=C(Nc2ccccc2)N2CCCCC2)cc1
TGI: > 100 µM

COc1cc(-c2nn(-c3cccc(NC(=O)Nc4cc(C(F)(F)F)cc(C(F)(F)F)c4)c3)cc2-c2ccncc2)ccc1Cl
GI50: 1.13 µM
TGI: 4.21 µM

Cc1cc2nc(CCC(=O)O)c(=O)[nH]c2cc1C
TGI: > 100 µM

CC(C)(C)c1cc(C(C)(C)C)c(SS(=O)(=O)O)c(O)c1O
TGI: > 100 µM

COC(=O)c1ccccc1C1CN=NC12Cc1ccc(C)c(C)c1C2=O (configuration not stated)
TGI: > 100 µM

Nc1ccc2nc(Nc3ccc(F)cc3)cnc2c1
TGI: > 100 µM

COc1ccc(/C=C/C(=O)/C=C/c2ccc(OC)cc2)cc1
TGI: > 100 µM

CC(=O)OC(C)C1C2=C(C(=O)CC1(C)O)C(=O)c1c(ccc(-c3ccc4c(c3O)C(=O)C3=C(C4=O)C(C(C)OC(C)=O)C(C)(O)CC3=O)c1O)C2=O (configuration not stated)
TGI: 25 µM

CN(C)c1ccc(/C=c2/c3ccccc3n3nc4ccccc4c23)cc1
TGI: > 100 µM

N#Cc1c(O)c(N=Nc2ccccc2F)c(=O)n2c1[nH]c1ccccc12
TGI: > 100 µM

O=C(c1ccco1)c1nc2cc(Cl)ccc2[n+]([O-])c1C(F)(F)F
GI50: 79.5 µM
TGI: > 100 µM

O=C(CO)CC(=O)C(=O)Nc1ccccc1
TGI: > 100 µM

CC(=O)NC(C)(C)C1CC=C(C)CC1 (configuration not stated)
TGI: > 100 µM

Cc1sc2nc(-c3ccc(Cl)c([N+](=O)[O-])c3)c(/C=N/N=C(N)N)n2c1C
TGI: 2.96 µM

COc1cccc(NC(=O)/C(CC(=O)CC(c2ccccc2)c2c(O)c3ccccc3oc2=O)=N\NC(C)(C)C)c1OC (configuration not stated)
TGI: > 100 µM

Fc1ccc2c(c1)c(-c1nc(-c3c[nH]c4ncccc34)cs1)cn2CCCN1CCCCC1
GI50: 1.65 µM
TGI: 3.06 µM

CC(C)(C)c1cc(C2NCCO2)cc(C(C)(C)C)c1O (configuration not stated)
TGI: > 100 µM

O=C1C(=O)c2ccccc2C(O)=C1CC=C(Br)Br
GI50: 12.9 µM
TGI: 72.4 µM

Cc1ccc2c(=O)c3cccc(CC(=O)O)c3[nH]c2c1C
TGI: > 100 µM

CCC/C(=N/NC(=O)C(N)=O)C(CC)C(=O)CCC(=O)N(Cc1ccccc1)Cc1ccccc1 (configuration not stated)
TGI: > 100 µM

Oc1ccccc1/C=N/Nc1nc(N/N=C/c2ccccc2O)nc(N/N=C/c2ccccc2O)n1
TGI: > 100 µM

COc1cc(C2c3cc(O)c(OC)cc3C3OCC2C3CO)ccc1O (configuration not stated)
TGI: > 100 µM

Cc1ccccc1N=Nc1ccc(NC(=O)c2ccnn2C)c(C)c1
GI50: > 100 µM
TGI: > 100 µM

C=C(C)C1Cc2c(cc(O)c3c(=O)c4c(oc23)C(O)Oc2cc(OC)c(OC)cc2-4)O1 (configuration not stated)
TGI: > 10 µM

O=C(CCc1ccccc1)ON1C(=S)NC(c2ccccc2)(c2ccccc2)C1=S
TGI: > 100 µM

CCCCCC/C=C1\CCC(CN2CCCC2)C1=O (configuration not stated)
TGI: 36 µM

N[C@@H]1CCCC[C@H]1N.O=C([O-])C(=O)[O-].[Pt+4]
GI50: 35.3 µM
TGI: > 100 µM

COC(=O)C(=O)OC1(C(C)=O)CC2(c3ccccc3)OC1(c1ccccc1)c1ccccc12 (configuration not stated)
TGI: 33.2 µM

Cc1ccccc1C(=O)c1ccccc1O
TGI: > 100 µM

NC(=S)N/N=C(\Cc1nc2ccc(Cl)cc2[nH]c1=O)C(=O)Nc1ccc(Cl)cc1
TGI: > 100 µM

CCC(CO)Nc1nc(NCc2ccccc2O)c2ncn(C(C)C)c2n1 (configuration not stated)
GI50: 5.24 µM
TGI: > 100 µM

O=C1SS(=O)c2ccccc21 (configuration not stated)
TGI: > 100 µM

O=C1c2cc3c(cc2-c2c1c1ccc(Cl)cc1c(=O)n2CCCNCCO)OCO3
GI50: 1.24 µM
TGI: 2.65 µM

BrC1=CC=C2NC=CC3=CC=NC1C32 (configuration not stated)
TGI: > 92.9 µM

O=C1CCCCCCCC/C=C\CC(c2ccco2)O1 (configuration not stated)
GI50: > 100 µM
TGI: > 100 µM

CC(=O)OC[C@]1(O)CC[C@@]23CC1C[C@@H]2CCC1C(C)(C)CCC[C@@]13C (some centres not stated)
TGI: 29.9 µM

O=C1NC(=O)C2C(=O)NC(=O)C1C2(c1ccccc1)c1cc[nH]c1 (configuration not stated)
TGI: > 100 µM

O=C1C=C(Sc2ccccc2)c2nccc3c2c1nc1ccccc13
TGI: 97 µM
